# Measured values reported in the supplement of paper PMC8728848.
# The list shows a part of the results.
# B1: Cohesin-hDC-ASGPR (Homo sapiens) (protein)
# chain: LDDLDAVRIKVDTVNAKPGDTVRIPVRFSGIPSKGIANCDFVYSYDPNVLEIIEIEPGDIIVDPNPDKSFDTAVYPDRKIIVFLFAEDSGTGAYAITKDGVFATIVAKVKEGAPNGLSVIKFVEVGGFANNDLVEQKTQFFDGGANVGDTTEPATPTTPVTTPTTTDDLDAASQNSKFQRDLVTLRTDFSNFTSNTVAEIQALTSQGSSLEETIASLKAEVEGFKQERQAGVSELQEHTTQKAHLGHCPHCPSVCVPVHSEMLLRVQQLVQDLKKLTCQVATLNNNASTEGTCCPVNWVEHQDSCYWFSHSGMSWAEAEKYCQLKNAHLVVINSREEQNFVQKYLGSAYTWMGLSDPEGAWKWVDGTDYATGFQNWKPGQPDDWQGHGLGGGEDCAHFHPDGRWNDDVCQRPYHWVCEAGLGQTSQESHHHHHH
# Key:
# Experiment in all cases: glycan array binding signal (z-score within array); higher = stronger binding
# Details in all cases: glycan notation: IUPAC condensed, linker removed
# [1] = biological target: Fuc(a1-3)[Gal(b1-4)]GlcNAc(b1-3)Gal(b1-4)[Fuc(a1-3)]GlcNAc
# How it was run: (§1)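 From the Consortium for Functional Glycomics database, 3228 arrays were curated, keeping only those whose protein sequence was available. Binding is given as a within-array Z-score averaged across arrays sharing a protein sequence and across linkers. Negative Z-scores can be read as non-binding.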
# [2] = biological target: Fuc(a1-3)[Gal(b1-4)]GlcNAc(b1-3)Gal(b1-4)[Fuc(a1-3)]GlcNAc(b1-3)Gal(b1-4)[Fuc(a1-3)]GlcNAc
# How it was run: as §1
# [3] = biological target: Fuc(a1-3)[Gal(b1-4)]GlcNAc(b1-3)GalNAc
# How it was run: as §1
# [4] = biological target: Fuc(a1-3)[Gal(b1-4)]GlcNAc(b1-6)GalNAc
# How it was run: as §1
# [5] = biological target: Fuc(a1-3)[Gal(b1-4)]GlcNAc(b1-6)[Gal(b1-3)GlcNAc(b1-3)]Gal(b1-4)Glc
# How it was run: as §1
# [6] = biological target: Fuc(a1-3)[Gal(b1-4)]GlcNAc6S
# How it was run: as §1
# [7] = biological target: Fuc(a1-3)[Gal3S(b1-4)]Glc
# How it was run: as §1
# [8] = biological target: Fuc(a1-3)[Gal3S(b1-4)]GlcNAc
# How it was run: as §1
# [9] = biological target: Fuc(a1-3)[Gal3S(b1-4)]GlcNAc6S
# How it was run: as §1
# [10] = biological target: Fuc(a1-3)[GalNAc(b1-4)]GlcNAc
# How it was run: as §1
# [11] = biological target: Fuc(a1-3)[GalNAc(b1-4)]GlcNAc6S
# How it was run: as §1
# Fuc(a1-4)GlcNAc = biological target: Fuc(a1-4)GlcNAc
# How it was run: as §1
# Fuc(b1-3)GlcNAc = biological target: Fuc(b1-3)GlcNAc
# How it was run: as §1
# Gal(a1-2)Gal = biological target: Gal(a1-2)Gal
# How it was run: as §1
# Gal(a1-3)Gal = biological target: Gal(a1-3)Gal
# How it was run: as §1
# Gal(a1-3)Gal(b1-3)GlcNAc = biological target: Gal(a1-3)Gal(b1-3)GlcNAc
# How it was run: as §1
# [12] = biological target: Gal(a1-3)Gal(b1-3)GlcNAc(b1-2)Man
# How it was run: as §1
# [13] = biological target: Gal(a1-3)Gal(b1-3)GlcNAc(b1-2)Man(a1-3)[Gal(a1-3)Gal(b1-3)GlcNAc(b1-2)Man(a1-6)]Man(b1-4)GlcNAc(b1-4)GlcNAc
# How it was run: as §1
# [14] = biological target: Gal(a1-3)Gal(b1-3)GlcNAc(b1-3)GalNAc
# How it was run: as §1
# [15] = biological target: Gal(a1-3)Gal(b1-3)GlcNAc(b1-6)GalNAc
# How it was run: as §1
# [16] = biological target: Gal(a1-3)Gal(b1-3)[Fuc(a1-4)]GlcNAc(b1-2)Man(a1-3)[Gal(a1-3)Gal(b1-3)[Fuc(a1-4)]GlcNAc(b1-2)Man(a1-6)]Man(b1-4)GlcNAc(b1-4)GlcNAc
# How it was run: as §1
# Gal(a1-3)Gal(b1-4)Glc = biological target: Gal(a1-3)Gal(b1-4)Glc
# How it was run: as §1
# Gal(a1-3)Gal(b1-4)GlcNAc = biological target: Gal(a1-3)Gal(b1-4)GlcNAc
# How it was run: as §1
# [17] = biological target: Gal(a1-3)Gal(b1-4)GlcNAc(b1-2)Man
# How it was run: as §1
# [18] = biological target: Gal(a1-3)Gal(b1-4)GlcNAc(b1-2)Man(a1-3)[Gal(a1-3)Gal(b1-4)GlcNAc(b1-2)Man(a1-6)]Man(b1-4)GlcNAc(b1-4)GlcNAc
# How it was run: as §1
# [19] = biological target: Gal(a1-3)Gal(b1-4)GlcNAc(b1-3)GalNAc
# How it was run: as §1
# [20] = biological target: Gal(a1-3)Gal(b1-4)GlcNAc(b1-6)GalNAc
# How it was run: as §1
# [21] = biological target: Gal(a1-3)Gal(b1-4)[Fuc(a1-3)]GlcNAc
# How it was run: as §1
# [22] = biological target: Gal(a1-3)Gal(b1-4)[Fuc(a1-3)]GlcNAc(b1-2)Man(a1-3)[Gal(a1-3)Gal(b1-4)[Fuc(a1-3)]GlcNAc(b1-2)Man(a1-6)]Man(b1-4)GlcNAc(b1-4)GlcNAc
# How it was run: as §1
# Gal(a1-3)GalNAc = biological target: Gal(a1-3)GalNAc
# How it was run: as §1
# [23] = biological target: Gal(a1-3)[Gal(a1-4)]Gal(b1-4)GlcNAc
# How it was run: as §1
# [24] = biological target: Gal(a1-4)Gal(b1-3)GlcNAc(b1-2)Man(a1-3)[Gal(a1-4)Gal(b1-3)GlcNAc(b1-2)Man(a1-6)]Man(b1-4)GlcNAc(b1-4)GlcNAc
# How it was run: as §1
# Gal(a1-4)Gal(b1-4)Glc = biological target: Gal(a1-4)Gal(b1-4)Glc
# How it was run: as §1
# Gal(a1-4)Gal(b1-4)GlcNAc = biological target: Gal(a1-4)Gal(b1-4)GlcNAc
# How it was run: as §1
# [25] = biological target: Gal(a1-4)Gal(b1-4)GlcNAc(b1-2)Man(a1-3)[Gal(a1-4)Gal(b1-4)GlcNAc(b1-2)Man(a1-6)]Man(b1-4)GlcNAc(b1-4)GlcNAc
# How it was run: as §1
# [26] = biological target: Gal(a1-4)Gal(b1-4)GlcNAc(b1-3)Gal(b1-4)Glc
# How it was run: as §1
# Gal(a1-4)GlcNAc = biological target: Gal(a1-4)GlcNAc
# How it was run: as §1
# Gal(a1-6)Glc = biological target: Gal(a1-6)Glc
# How it was run: as §1
binder,measurement,setting,value
B1,glycan array binding signal (z-score),[1],-0.349
same,glycan array binding signal (z-score),[2],-0.476
same,glycan array binding signal (z-score),[3],-0.391
same,glycan array binding signal (z-score),[4],2.41
same,glycan array binding signal (z-score),[5],-0.495
same,glycan array binding signal (z-score),[6],-0.524
same,glycan array binding signal (z-score),[7],-0.33
same,glycan array binding signal (z-score),[8],-0.168
same,glycan array binding signal (z-score),[9],-0.422
same,glycan array binding signal (z-score),[10],2.62
same,glycan array binding signal (z-score),[11],2.62
same,glycan array binding signal (z-score),Fuc(a1-4)GlcNAc,-0.313
same,glycan array binding signal (z-score),Fuc(b1-3)GlcNAc,-0.392
same,glycan array binding signal (z-score),Gal(a1-2)Gal,-0.204
same,glycan array binding signal (z-score),Gal(a1-3)Gal,-0.502
same,glycan array binding signal (z-score),Gal(a1-3)Gal(b1-3)GlcNAc,1.05
same,glycan array binding signal (z-score),[12],-0.52
same,glycan array binding signal (z-score),[13],-0.442
same,glycan array binding signal (z-score),[14],-0.376
same,glycan array binding signal (z-score),[15],2.9
same,glycan array binding signal (z-score),[16],-0.322
same,glycan array binding signal (z-score),Gal(a1-3)Gal(b1-4)Glc,-0.483
same,glycan array binding signal (z-score),Gal(a1-3)Gal(b1-4)GlcNAc,-0.492
same,glycan array binding signal (z-score),[17],-0.386
same,glycan array binding signal (z-score),[18],-0.411
same,glycan array binding signal (z-score),[19],-0.475
same,glycan array binding signal (z-score),[20],2.57
same,glycan array binding signal (z-score),[21],-0.416
same,glycan array binding signal (z-score),[22],-0.296
same,glycan array binding signal (z-score),Gal(a1-3)GalNAc,-0.07
same,glycan array binding signal (z-score),[23],-0.512
same,glycan array binding signal (z-score),[24],-0.444
same,glycan array binding signal (z-score),Gal(a1-4)Gal(b1-4)Glc,-0.467
same,glycan array binding signal (z-score),Gal(a1-4)Gal(b1-4)GlcNAc,-0.452
same,glycan array binding signal (z-score),[25],-0.424
same,glycan array binding signal (z-score),[26],-0.504
same,glycan array binding signal (z-score),Gal(a1-4)GlcNAc,-0.288
same,glycan array binding signal (z-score),Gal(a1-6)Glc,-0.403
